According to article PMC12040169 (PLOS Biology, 2025):
The other results are listed elsewhere or left out.

These molecules were tested on T1, C. trachomatis L2/434/Bu expressing GFP (CTL2-GFP). Conditions: total inclusion area; 28.5 h, 10 µM; inhibitor.
T1 construct: L2/434/Bu GFP intracellular growth in HeLa cells
Set-up: species or system HeLa; C. trachomatis total inclusion area by high-content imaging, normalised to DMSO
Outline: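 Post-fluorescence-read fixation, DNA staining with Hoechst and high-content imaging; GFP inclusion area and number per well, and nuclei counts, used as proxies for bacterial growth and host viability.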

| Structure (SMILES) | % of control remaining |
| --- | --- |
| CCc1nnc(N/N=C/c2cc(Cl)c(OCc3ccccc3F)c(OC)c2)n1N [CBK278282C] | 88.7598 |
| CCNC(=O)Nc1nc2cccnc2cc1-c1ccc(OC)c(C)c1 [CBK081241] | 124.731 |
| CC(=O)Nc1cccc(C(=O)OCC(=O)N2CCCCC2C)c1 (stereo not drawn) [CBK305868] | 24.6378 |
| CN1C2CCC1CC(OC(=O)c1cccnc1)C2 (stereo not drawn) [CBK026000] | 79.2222 |
| O=C1CCCN1c1ccc(S(=O)(=O)NC2C3CCCCC32)cc1 (stereo not drawn) [CBK282842] | 82.0337 |
| CC1=NC(O)(C(F)(F)F)C(c2ccccc2)S1 (stereo not drawn) [CBK009121] | 34.1511 |
| Clc1ccc(CSc2nccnc2N2CCCC2)cc1 [CBK107177] | 56.3302 |
| Cn1cc(-c2ccncc2)c(C2CCCCN2C(=O)c2ccccc2)n1 (stereo not drawn) [CBK283444] | 103.296 |
| C/C(Cl)=C\CN1C(=O)C(=O)c2cc(C)ccc21 [CBK087601] | 86.0469 |
| COc1ccc(CC(=O)N2CCCc3c(cnn3C)C2)cc1F [CBK285285] | 90.5036 |
| Cc1cc(-c2nnc(SCc3ccc(Cl)cc3)n2C)no1 [CBK067720] | 91.6156 |
| O=S(=O)(Nc1cc(F)cc(F)c1F)c1cc(OC2CCNCC2)c2occc2c1 [CBK082814C] | 100.16 |
| COc1ccccc1CN(C(=O)Nc1ccccc1Cl)C1CC1 [CBK298332] | 96.1656 |
| CCCCNC(=O)NS(N)(=O)=O [CBK022990] | 36.9682 |
| c1ccc(CCNc2c3c(nc4ccccc24)CCC3)cc1 [CBK263693C] | 85.052 |
| CCN1CCC(CC(=O)N2CCc3[nH]c4ccccc4c3C2)CC1 [CBK281846] | 125.988 |
| COc1ccccc1N1CCN(c2c(C)c(C)nc3cc(-c4nccn4C)nn23)CC1 [CBK286182] | 118.203 |
| CCCSCC(=O)Nc1nn(C)c2cccc(N3CCOCC3)c12 [CBK307354] | 73.2979 |
| N#Cc1c(NC(=O)c2cc(S(=O)(=O)N3CCOCC3)cs2)sc2c1CCCC2 [CBK264532] | 129.506 |
| COc1ccc(Cl)cc1NC(=O)C1CC(=O)N=C(N2CCOCC2)N1 (stereo not drawn) [CBK268893] | 98.9917 |
| COc1ncc(-c2nccnc2NCc2cccs2)c(OC)n1 [CBK037318] | 106.036 |

| Structure (SMILES) | % of control remaining |
| --- | --- |
| COc1ccc(C(=O)C2=C(O)C(=O)N(Cc3cccnc3)C2c2ccc(N(C)C)cc2)cc1 (stereo not drawn) [CBK264635] | 112.054 |
| COc1cc(/C=N\NC(=O)CN2CCN(C)CC2)cc2c1OCO2 [CBK261503] | 86.9372 |
| CN(C)CCCN(Cc1ccco1)Cc1cccn1-c1ccccn1 [CBK283180] | 80.4987 |
| Cc1ccc(C)c(N2CCN(CCCNC(=S)Nc3ccc(Cl)cc3Cl)CC2)c1 [CBK267951] | 69.6285 |
| O=C(O)C1=CC(c2c[nH]nc2-c2ccc(F)cc2)n2ncnc2N1 (stereo not drawn) [CBK286906] | 72.3547 |
| CC(=O)N[C@@H](CC[S+](C)[O-])C(=O)N1CCC2(C/C=C/C[C@@H]3COCC[C@@H]3NC(=O)[C@@H](CC(C)C)NC2=O)CC1 (stereo partly drawn) [CBK292192] | 87.6985 |
| COC(=O)NC(=O)N1CCN(c2c(Cl)cncc2Cl)CC1 [CBK043398] | 76.3245 |
| COc1cccc2sc(NC(=O)CCCN(C)C)nc12 [CBK149261] | 74.9947 |
| Cc1ccc(Cc2cnc(NC(=O)N3CCC(O)C(F)(F)C3)s2)cc1C (stereo not drawn) [CBK304120] | 46.3259 |
| Cc1ccc(OCCO)cn1 [CBK001786] | 100.448 |
| c1csc(CNc2nc3ccccc3n2CCN2CCOCC2)c1 [CBK262462] | 95.3527 |
| Cc1ccc(S(=O)(=O)Nc2ccc(Nc3cc(-c4ccsc4)ncn3)cc2)cc1 [CBK037792] | 73.5226 |
| Cc1cc(F)ccc1C(=O)NCC1CCN(c2cnn(C)c(=O)c2)C1 (stereo not drawn) [CBK307097] | 59.6855 |
| c1coc(-c2nccnc2NCc2ccncc2)c1 [CBK038059] | 103.447 |
| O=C(O)c1ccccc1OCCCCOc1cccc2cccnc12 [CBK264136] | 105.282 |
| C=CCOc1ccc(OCCN2CC(C)OC(C)C2)cc1 (stereo not drawn) [CBK269646C] | 101.51 |
| CC(C)NC(=O)NC[C@H]1C[C@@H]2CCN1C[C@@H]2c1cc(-c2ccc(F)cc2)nn1C [CBK289111] | 110.362 |
| CC(=O)N[C@H](Cc1c[nH]c2ccccc12)C(=O)N1CCN(c2ccc(C)cc2)CC1 [CBK091333] | 88.6469 |
| CNC(=O)C1(Cc2ccc(-c3ccccc3)cc2)CCN(C(=O)Cc2ccccc2)CC1 [CBK285764] | 57.2184 |
| CN(C(=O)Cn1cccn1)c1nc2c(s1)CC(c1ccccc1)CC2 (stereo not drawn) [CBK305173] | 10.6281 |
| CCC1=C(c2ccc(Cl)cc2)CCC(C(=O)NCCCN(C)C)C1C (stereo not drawn) [CBK012578] | 3.648 |

| Structure (SMILES) | % of control remaining |
| --- | --- |
| COCc1nnc(SCC(=O)N2CCc3ccccc32)n1-c1ccccc1 [CBK269739] | 97.5017 |
| COCC(C)NC(=O)Cn1cccc2cc(C(F)F)nc1-2 (stereo not drawn) [CBK285011] | 98.6087 |
| CC(=O)NC[C@H]1CN(c2ccc(C3=CC[S+]([O-])CC3)c(F)c2)C(=O)O1 (stereo partly drawn) [CBK017555] | 0.1165 |
| COc1ccc(-c2cc(=O)oc3cc(OC(C)C(=O)O)ccc23)cc1 (stereo not drawn) [CBK286696] | 74.8776 |
| CC(NC(C)(C)C)C(O)COc1ccc(Cl)c2c1C1CCC2CC1 (stereo not drawn) [CBK017752C] | 49.0845 |
| CC1CN(C)C(c2ccccc2)C(C)C12NC(=O)NC2=O (stereo not drawn) [CBK288428] | 142.279 |
| Cc1cccc(OCC(=O)Nc2ccc(S(=O)(=O)N3CCOCC3)cc2)c1 [CBK264110] | 95.7477 |
| O=C(CCSS(=O)(=O)O)N1CCc2ccccc21 [CBK260892N] | 102.919 |
| CN1CCC2(CC1)NCCc1c2ccn1S(=O)(=O)c1ccc(I)cc1 [CBK061945C] | 8.188 |
| CN(C(=O)CN1CCCC1Cn1cccn1)C1(C#N)CCCCC1 (stereo not drawn) [CBK304571] | 43.8865 |
| Cc1nonc1CC(=O)N[C@H]1C2CCCCC2[C@@H]1c1ccccc1 (stereo partly drawn) [CBK285126] | 101.002 |
| CCn1cc(S(=O)(=O)NC2CCc3[nH]c4ccc(C)cc4c3C2)cn1 (stereo not drawn) [CBK304790] | 88.9014 |
| CCC1CCCCN1C(=O)c1sc2ncccc2c1N (stereo not drawn) [CBK081410] | 84.6329 |
| CC(C)NS(=O)(=O)c1ccc(NS(=O)(=O)c2cc(C(=O)O)ccc2Cl)cc1 [CBK296951] | 77.6287 |
| COc1ccc(S(=O)(=O)Nc2ccc3oc4c(c3c2)CC(C)CC4)cc1[N+](=O)[O-] (stereo not drawn) [CBK266131] | 79.5464 |
| c1ccc2c(c1)/C(=N/OCCCN1CCCCC1)CC21CCCCC1 [CBK013321] | 25.1119 |
| O=S(=O)(Nc1ccc2cn[nH]c2c1)c1ccc(-c2ccon2)s1 [CBK067157] | 95.5565 |
| FC(F)(F)c1cnc(N2CCNCC2)c(Cl)c1 [CBK013400] | 92.9512 |
| CCN1C(=O)c2ccccc2C(=O)[C@@]2(C)CN(C(=O)C3CC3)C[C@@H]12 [CBK284567] | 123.464 |
| CN(C)CCN1CCN(CC2(c3ccc(Cl)cc3)CC2)CC1 [CBK282783] | 101.8 |
| O=c1nc(C(F)(F)F)n2ccccc2n1 [CBK027683] | 86.528 |

| Structure (SMILES) | % of control remaining |
| --- | --- |
| CCOc1ccc2nc(SCc3nc(N)nc(Nc4cccc(Cl)c4C)n3)sc2c1 [CBK265202] | 90.049 |
| CN(C)CCCN1C(=O)C(O)=C(C(=O)c2ccc(Br)cc2)C1c1cccnc1 (stereo not drawn) [CBK264589] | 115.962 |
| COc1ccccc1-c1ncc(OCc2ccccn2)nc1N [CBK145070] | 101.245 |
| CCN1CCN(C(=S)c2ccc(OCC(N)=O)c(OC)c2)CC1 [CBK269293] | 86.602 |
| CCN1C(=O)CC2(C1=O)C(=O)N(CCc1cccs1)c1ccccc12 (stereo not drawn) [CBK075521] | 89.1512 |
| O=C(NCC(F)F)c1cn2cc(-c3cccs3)n(CC3CC3)c(=O)c2n1 [CBK307347] | 79.4177 |
| CN(C(=O)C1CCN(Cc2cccc(C(F)(F)F)c2)CC1)C(c1ccc(F)cc1)c1ccccn1 (stereo not drawn) [CBK148409] | 106.989 |
| CCNS(=O)(=O)c1ccc(NC(=S)Nc2ccc(S(N)(=O)=O)cc2)cc1 [CBK266978] | 92.2571 |
| Cc1c(C)n(Cc2ccco2)c2ncnc(SCCC(=O)O)c12 [CBK307569] | 41.3982 |
| COCC(=O)NC1CCN(CC2(c3ccc(C)cc3)CC2)CC1 [CBK285350] | 91.2577 |
| O=S(=O)(NC1CCCCC1)c1ccc(Cl)cc1I [CBK057574] | 99.1309 |
| CC1(C)Cc2c(sc(NC(=O)C3CC(Cl)=CCC3C(=O)O)c2C#N)CO1 (stereo not drawn) [CBK265002] | 127.371 |
| C/C(=N\Nc1ccc(Cl)c(Cl)c1)c1cccnc1 [CBK015914C] | 11.1094 |
| O=C(CCSc1ccccc1)Nc1ccccc1C(=O)O [CBK264119] | 71.5536 |
| CSc1ccc(-c2cnc(N)c(-c3ccc(C(=O)N4CCOCC4)cc3)n2)cc1 [CBK084539] | 104.288 |
| Cc1nc(C)c(CC(=O)N2CCC(Oc3cccc(F)c3)CC2)s1 [CBK282223] | 98.0803 |
| Cc1cc(C[C@@H]2CCC[C@H]2NCc2cc(Cl)ccc2O)on1 [CBK282997] | 128.732 |
| O=C(CCN1CCCCC1)Nc1cnc(-c2ccc(F)cc2)c(-c2ccsc2)n1 [CBK036846] | 75.0317 |
